Assay results reported in US8513219B2, “Substituted phosphonates and their use in decreasing amyloid aggregates” (Queen Mary & Westfield College, University of London, priority 2007, dated 2013).
Where two headings read alike, the source gives them in different places.

Test system: zinc in the brain parenchyma
Conditions: 4 days, mice

Oc1c(I)cc(Cl)c2cccnc12 [Clioquinol, reference compound]
zinc staining signal in the central nervous system (10 mg/kg i.p.): Marked decreases | zinc staining signal in the central nervous system (30 mg/kg p.o.): Decreases in the zinc signal
